# Experimental data from PubChem BioAssay AID1345083 (National Center for Advancing Translational Sciences (NCATS), 2018).
# The whole screen tested about 94,000 compounds, of which about 6,200 (6.6%) were called active. The shares of active, inactive and inconclusive entries below differ from those in the screen. Calls follow the shape of the dose curve; as a rule, active = well fitted inhibition curve with a large enough effect; inconclusive = small, poorly fitted or top-dose-only effect; inactive = flat fitted curve, though single readings scatter. Where the call is inconclusive, the potency comes from a doubtful curve fit.
# Assay: Cytotoxic Profiling in HEK 293 Cell Line of Diverse Libraries Using Quantitative High-Throughput Screening; also: nearly all actives have a fitted effect of over 60% in size
# Conditions: HEK 293 viability, ATP luminescence (CellTiter-Glo), 48-72 h; activity change, negative = cytotoxicity: at 115 µM (top of the series) unless noted; series mostly up to 115 µM
# In short: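 Pintool-delivered compounds were incubated with HEK 293 cells (250 cells/well) at 37 degree Celsius for 48 or 72 hr. ATP-dependent luminescence (CellTiter-Glo) then reported remaining viable cells.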
# % is scaled to controls: 0 for no effect and ±100 for the full control effect; potency is read from the fitted curve at half-maximal effect; tags tell the direction and shape of the fitted curve.
SMILES,Potency,"activity change, negative = cytotoxicity",outcome
COC(=O)c1nc(NC(=O)Cn2nc3c(cc2=O)CCCC3)sc1-c1ccccc1,"inconclusive: 89.1 µM [inhibitor, single point]",–,–
CC(=O)N1CCCC(c2nc(CCOCC3CC3)no2)C1 (configuration not stated),–,inactive: -17.4%,–
O=C1NCc2ccccc2CC12CCN(Cc1ccc3ccccc3n1)CC2,"inconclusive: 56.2 µM [inhibitor, partial curve, poor fit]",–,–
O=C(N1c2ccccc2CC1c1nnc(C2CCOCC2)o1)C1(c2ccccc2)CC1 (configuration not stated),"inconclusive: 25.1 µM [inhibitor, full curve]",–,–
COc1cccc(-c2ccc(CN3CCCC(NC(=O)Cc4cccc(Cl)c4)C3)cc2)c1 (configuration not stated),"inconclusive: 22.4 µM [inhibitor, full curve, poor fit]",–,–
COc1ccccc1-c1[nH]nc2ncc(-c3ccccc3O)nc12,"inconclusive: 50.1 µM [inhibitor, full curve, poor fit]",–,–
COc1ccc(-c2noc([C@@H]3C[C@H](NC(=O)COCC(=O)O)CN3C)n2)cc1,–,inactive: 0.54% [at 172 µM],–
Cc1nc(-c2c3n(c(=O)n(Cc4ccc(OC(F)(F)F)cc4)c2=O)CCCCC3)no1,"inconclusive: 50.1 µM [inhibitor, partial curve, poor fit]",–,–
Cc1ccc(-c2ccc(C=O)cc2)cc1Cl,"inconclusive: 141 µM [inhibitor, single point]",–,–
C[S+](=O)([O-])N1CCn2c(nnc2C(N)c2ccccc2)C1 (configuration not stated),–,–,inactive
CC(NC(=O)C1CC(c2ccccc2)CN(C(=O)c2ccc(F)cc2)C1)c1ccccc1 (configuration not stated),"inconclusive: 35.5 µM [inhibitor, partial curve, poor fit]",–,–
COCC(=O)N1CCCC(c2nn(-c3cccc(Cl)c3)c(=O)[nH]2)C1 (configuration not stated),–,inactive: -6.23%,–
CC(Oc1ccccc1)C(=O)N1CCC(n2cc(-c3nc(-c4ccccc4)no3)nn2)CC1 (configuration not stated),active: 20 µM,–,–
COc1ccccc1CCC(=O)N1CCC2(CC1)NC(=O)N(c1ccc(F)cc1)N2,"inconclusive: 25.1 µM [inhibitor, full curve]",–,–
CN(c1cc(=O)c2ccnc(-c3ccc(O)c(F)c3)c2o1)C1CCOCC1,–,inactive: -19.5% [at 172 µM],–
Cc1ccsc1CN1CCn2nnc(CCC(=O)NCc3ccccc3)c2C1,"inconclusive: 50.1 µM [inhibitor, partial curve, poor fit]",–,–
Cn1ncc2c(C(=O)NCC(F)(F)F)cc(-c3ccccc3C(F)(F)F)nc21,"inconclusive: 50.1 µM [inhibitor, partial curve, poor fit]",–,–
O=C(c1ccsc1)N1CCCC(c2noc(COc3ccccc3F)n2)C1 (configuration not stated),–,inactive: -29.2%,–
CC(C)N1C(=O)C2(CCCC2)C1C(=O)N(C)CCc1ccccn1 (configuration not stated),–,inactive: -4.3%,–
Cc1ccc(C2Cn3nnc(C(=O)N4CCC(C(=O)NCCC5=CCCCC5)CC4)c3CO2)cc1 (configuration not stated),–,inactive: 10.4%,–
O=C(CCc1cc2n(n1)CCCNC2)NCc1csc2c1CCCC2,–,inactive: -6.11%,–
COCc1nc(-c2ccc(OC3CCN(Cc4ccc(C(F)(F)F)cc4)C3)cc2)no1 (configuration not stated),"inconclusive: 10 µM [inhibitor, full curve, poor fit]",–,–
CNC(=O)c1cc(C2CC2)nc2c1c(C1CCCN(C(=O)c3cccc(Cl)c3)C1)nn2C (configuration not stated),"inconclusive: 56.2 µM [inhibitor, partial curve, poor fit]",–,–

SMILES,Potency,"activity change, negative = cytotoxicity",outcome
O=C(Nc1ccccc1)c1cc2n(n1)CC(c1ccc3c(c1)OCO3)OC2 (configuration not stated),"inconclusive: 50.1 µM [inhibitor, partial curve, poor fit]",–,–
CCc1nn(-c2ccccc2)c(Oc2ccccc2F)c1CCC(=O)NCCOC,"inconclusive: 89.1 µM [inhibitor, single point]",–,–
O=C1NCN(Cc2ccc(Cl)cc2)C12CCN(Cc1ccc(C(F)(F)F)cc1)CC2,active: 39.8 µM,–,–
Cn1cc(-c2cnc3[nH]cc(CC(=O)NC4CCC4)c3c2)cn1,"inconclusive: 79.4 µM [inhibitor, partial curve, poor fit]",–,–
COCCNC(=O)c1ccc(OC2CCN(C(C)CCSC)CC2)c(Cl)c1 (configuration not stated),–,inactive: -25.7%,–
O=C(c1ccc2c(c1)OCO2)N1CCC2(CC1)CC(c1cccc(C(F)(F)F)c1)=NO2,"inconclusive: 50.1 µM [inhibitor, partial curve, poor fit]",–,–
O=C(O)c1ccc(CN2CC[C@@H](c3ccc4ccccc4c3)[C@H](O)C2)cc1,–,inactive: 0.0308%,–
O=C(COc1ccccc1)N[C@H]1CO[C@H]2[C@@H]1OC[C@@H]2Nc1nccc(-c2cccs2)n1,"inconclusive: 56.2 µM [inhibitor, partial curve, poor fit]",–,–
Cn1nccc1CN1CCC2(COc3ccccc3C(=O)N2)C1 (configuration not stated),active: 89.1 µM,–,–
CN(Cc1ccccc1)C(=O)CN1C(=O)COc2ccc(C(=O)COc3ccc(F)cc3)cc21,active: 20 µM,–,–
CN(C)C(=O)c1ccc2nccn2c1,–,–,inactive [at 230 µM]
COC1CCOC2(CCN(C(=O)c3ccsc3)CC2)C1 (configuration not stated),–,inactive: 1.33%,–
O=C(Cc1ccc(F)cc1)N1CCC(C(=O)N2CCC(N3Cc4ccccc4C3=O)CC2)CC1,"inconclusive: 39.8 µM [inhibitor, partial curve]",–,–
COC(=O)C1=CN(CC(=O)Nc2c(C)cccc2C)S(=O)(=O)N=C1C,–,inactive: -24.5%,–
CCC(C(=O)N1CCc2cn(CCOC)c3cccc(c23)C1)c1ccccc1 (configuration not stated),"inconclusive: 79.4 µM [inhibitor, partial curve, poor fit]",–,–
O=C(Nc1ccc(-c2nnc3n2CCCC3)cc1)c1ccccn1,–,inactive: 0.901%,–
CC1CCN(C(=O)CN2C(=O)NC(c3ccccc3)C3=C2COC3=O)CC1 (configuration not stated),–,inactive: 1.14%,–
COC(=O)[C@@H]1Cc2c([nH]c3ccccc23)[C@H]2C[C@@H](NCCc3cnc[nH]3)C[C@@H](c3cccc(Cl)c3)N21,active: 28.2 µM,–,–
COCc1nc(C2CC(N)C2)cc(N(C)Cc2noc3c2CCCC3)n1 (configuration not stated),–,inactive: -20.3%,–
CNC(=O)c1cc(C2CC2)nc2c1c(C1CCN(C(=O)c3ccc(OC)cc3)CC1)nn2C,"inconclusive: 70.8 µM [inhibitor, partial curve, poor fit]",–,–
CC1=C[C@@H](CN2CCN(c3ncccn3)CC2)[C@H](C(C)C)C[C@H]1Cc1nnc(-c2ccccc2F)o1,active: 31.6 µM,–,–
Cc1cccc(-c2cccc(CN3CCCC(C(=O)NC4CC4)C3)c2)c1 (configuration not stated),"inconclusive: 56.2 µM [inhibitor, full curve, poor fit]",–,–
COc1ccccc1-c1ccc2ncc(Nc3ccc4c(c3)OCO4)n2n1,"inconclusive: 100 µM [inhibitor, partial curve]",–,–

SMILES,Potency,"activity change, negative = cytotoxicity",outcome
O=C(NC1CCCN(c2cc(-c3ccc(F)cc3)[nH]n2)C1)c1cc(F)ccc1F (configuration not stated),active: 44.7 µM,–,–
COC(=O)c1ccc2nc(C[C@@H]3C[C@@H](C(C)C)[C@H](CNCc4ccccc4F)C=C3C)[nH]c2c1,"inconclusive: 31.6 µM [inhibitor, full curve, poor fit]",–,–
O=C(NCC1CC1)c1cccc(OC2CN(Cc3cccc(F)c3F)C2)c1,"inconclusive: 50.1 µM [inhibitor, partial curve, poor fit]",–,–
O=C(c1ccccc1C(F)(F)F)N1CCc2c(nc3cc[nH]n3c2=O)C1,–,inactive: 6.8%,–
O=[S+]1([O-])c2cccnc2OC(Cn2cccc2)CN1CCC1=CCCCC1 (configuration not stated),"inconclusive: 56.2 µM [inhibitor, partial curve, poor fit]",–,–
Cn1nc(-c2nncn2Cc2ccccc2)c2c1CCN(C(=O)CCC(=O)N1CCOCC1)C2,–,–,inactive
O=C1c2cnc(-c3cccc(CO)c3)nc2OCCN1c1cccc(C(F)(F)F)c1,"inconclusive: 44.7 µM [inhibitor, partial curve, poor fit]",–,–
Cc1cccc(C)c1-c1cc(C(=O)NCc2cccc(Cl)c2)c2cnn(C)c2n1,"inconclusive: 79.4 µM [inhibitor, partial curve, poor fit]",–,–
O=C1CCN(S(=O)(=O)c2ccccc2)CCCN(C(=O)C2CCCCC2)CCN1,–,inactive: -24.2%,–
COCc1nnc(NC(=O)C2c3ccccc3C(=O)N(CC(C)C)C23CCCCC3)s1 (configuration not stated),–,inactive: 10.5%,–
O=C(Cc1cccn1-c1cccc(Cl)c1)NCc1cccs1,"inconclusive: 89.1 µM [inhibitor, single point]",–,–
NC1CCN(C(=O)C2CCCN(c3nc(-c4ccccc4)nc4c3CCC4)C2)CC1 (configuration not stated),"inconclusive: 44.7 µM [inhibitor, partial curve, poor fit]",–,–
COc1cccc(-c2ccc3c(n2)CNC(=O)CO3)c1,"inconclusive: 141 µM [inhibitor, partial curve, poor fit]",–,–
Cc1nn(-c2ccccc2)c2c1C(C(C)C)N(C1CCN([S+](=O)([O-])c3ccccc3)C1)C2=O (configuration not stated),"inconclusive: 56.2 µM [inhibitor, partial curve, poor fit]",–,–
O=C(O)CCn1ncc2cc(OCC3CCN(C(=O)C4CC4)CC3)ccc21,–,–,inactive [at 172 µM]
Cc1noc(-c2cn(C3CCN(C(=O)c4ccc(C(C)(C)C)cc4)CC3)nn2)n1,"inconclusive: 17.8 µM [inhibitor, full curve]",–,–
CN1CCCN(Cc2ccc3c(c2)OCO3)c2ccccc21,"inconclusive: 50.1 µM [inhibitor, partial curve, poor fit]",–,–
CN1CCN(c2nc3c(c(=O)[nH]2)CCN(Cc2cc(Cl)ccc2F)CC3)CC1,–,inactive: 3.81%,–
CCN1C(=O)CCN(Cc2cccc(OC)c2OC)CC12CCOCC2,–,–,inactive
CCCN(C)CC1(O)CCC2(CCN(C(=O)C3CCCC3)CC2)CC1,"inconclusive: 56.2 µM [inhibitor, partial curve, poor fit]",–,–
O=c1n(-c2ccc(Cl)cc2)nc2n1CCN(Cc1ccsc1)C2,"inconclusive: 17.8 µM [inhibitor, full curve, poor fit]",–,–
